# Among all 71,000 compounds or so, about 1,800 (2.5%) were called active. This list was built around the results that the source calls inconclusive (neither active nor inactive); the mix of calls is not that of the screen. The call rests on the fitted dose curve; in most records, active means well fitted activation curve with a large enough effect in the signal ratio, with a control signal flat (not every such curve was filed as active); inconclusive means small, poorly fitted or top-dose-only effect, or effect the other way, or a change in a side signal; inactive means flat fitted curve, though single readings scatter; the % refers to the signal ratio. Potencies of inconclusive entries are doubtful fits and often do not repeat.
# Assay: Cell signaling CRE-BLA (Fsk stim); on activity change, negative = inhibition: % of control where 0% means no effect
# Conditions: CHO CRE-bla reporter (cAMP response element driving beta-lactamase), forskolin EC10, beta-lactamase ratio; activity change, negative = inhibition: at 38.2 µM (top of the series) unless noted
# Outline: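 Reporter-gene assay: CHO cells with beta-lactamase behind cAMP responsive elements, co-treated with compound and EC10 NKH 477 for 3 hours at 37 degrees Celsius. Activity came from the 460/530 nm CCF4 emission ratio.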
# Potency means the concentration at half of the fitted maximal effect; tags describe the fitted curve by direction and shape.
SMILES,"activity change, negative = inhibition",Potency
CC1CCC/C(=C\Nc2ccccc2C(=O)O)C1=O (centres undefined),inactive,–
O=c1ccc(Br)c[nH]1,inconclusive: -2.54%,–
Cc1cn([C@H]2C[C@H](O)[C@@H](COC(N)=O)O2)c(=O)[nH]c1=O,inactive: 4.72% [at 7.6 µM],–
Cc1cc(C)n2nc(C(=O)Oc3ccc4c(c3)OCO4)nc2n1,–,"inconclusive: 5.01 µM [falling, single point]"
Cc1cc(C)n(-c2ncc(-c3ccccc3)nn2)n1,inconclusive: 20.4%,–
Cc1ccc(SCCNS(=O)(=O)c2ccc(F)cc2)cc1,–,"inconclusive: 0.00316 µM [rising, full curve, poor fit]"
CSC1=C(C#N)C(c2ccc(C)cc2)C2=C(CCCC2=O)N1 (centres undefined),inactive,–
CCOC(=O)c1c(Nc2nc(C)c(C(=O)NC)s2)sc(C)c1C,–,active: 2.51 µM
CCn1cnc2c1c(=O)n(Cc1csc(-c3ccccc3)n1)c(=O)n2Cc1ccccc1,–,"inconclusive: 10 µM [rising, partial curve]"
Cc1nnc2sc(-c3ccncc3)nn12,inactive,–
Cc1ccc2c(CN3C(=O)NC(C)(c4ccc5c(c4)OCO5)C3=O)cc(=O)oc2c1 (centres undefined),–,"inconclusive: 10 µM [rising, single point]"
COc1cccc(CNc2nc3nc(C)c(Cl)c(C)n3n2)c1,–,"inconclusive: 10 µM [rising, partial curve]"
Cc1ccc(-c2nnn(CC(=O)NC3CC4CCC3C4)n2)cc1 (centres undefined),inconclusive: 0.042%,–
CCC(=O)N1c2ccc(S(=O)(=O)CCC(=O)N3CCn4c3nc3ccccc34)cc2CC1C (centres undefined),inconclusive: 5%,–
CC1(C)Cc2nc3sc4c(=O)[nH]cnc4c3cc2CS1,inactive,–
Cc1ccc(-n2c(=O)cc(N3CCc4ccccc4C3)[nH]c2=O)cc1,–,"inconclusive: 3.98 µM [rising, partial curve]"
CCOC(=O)c1c(-c2cccs2)csc1NC(=O)c1ccco1,inactive,–
Cc1ccc(S(=O)(=O)N2CCCC(c3nnc4n3-c3ccccc3SC4)C2)cc1 (centres undefined),inconclusive: 10.2%,–
NCCSc1nc2ccccc2s1,inactive: -11.4% [at 7.6 µM],–
Cc1cc(C)nc(SCc2nc(N)nc(-c3ccccc3O)n2)n1,–,"inconclusive: 6.31 µM [rising, partial curve]"
COc1cccc(C(c2sc3nc(C)nn3c2O)N2CCN(C(=O)c3ccco3)CC2)c1 (centres undefined),inconclusive: -0.282%,–
O=C(C[N+]12CN3CN(CN(C3)C1)C2)c1ccc(-c2ccccc2)cc1,inactive: 3.51% [at 7.6 µM],–
CCc1c(C#N)c(N)nc(SCC(=O)OCc2ccccc2)c1C#N,–,"inconclusive: 2.51 µM [rising, partial curve]"
Cc1cc(=O)n2nc(N3CCCC(C(=O)NCc4ccco4)C3)sc2n1 (centres undefined),inconclusive: 7.71%,–
COc1ccc(OC)c(CCNC(=O)Cn2sc3nc(C)cc(C)c3c2=O)c1,–,"inconclusive: 15.8 µM [rising, single point]"
O=C(Cc1nn[nH]n1)NCc1ccccc1Cl,inactive,–
O=C(O)[C@H](/C=C\c1ccccc1)c1ccccc1,inactive: 0.399% [at 7.6 µM],–

SMILES,"activity change, negative = inhibition",Potency
COc1ccc(-c2noc(CN3C(=O)c4ccccc4C3=O)n2)cc1,inconclusive: -2.58%,–
O=C(CSc1nc(O)c(C2CCCCC2)c(=O)[nH]1)NCC1CCCO1 (centres undefined),–,"inconclusive: 2.51 µM [rising, partial curve]"
O=C(COC(=O)c1ccc2c(c1)OCO2)NCc1ccc(Cl)cc1,–,"inconclusive: 3.98 µM [falling, single point]"
CCCCOC(=O)c1cc2c(cn1)[nH]c1ccccc12,inconclusive: -30%,–
Cc1csc(SCC(=O)NC(=O)NCc2ccccc2)n1,–,"inconclusive: 5.01 µM [falling, single point]"
Cc1cc(/C=N/n2cnnc2)c(C)n1-c1ccc2ncccc2c1,–,active: 0.0631 µM
CSc1nc2ccc(NS(=O)(=O)c3ccc4c(c3)OCCO4)cc2s1,–,"inconclusive: 5.01 µM [falling, single point]"
Clc1c(CSc2nc3ccccc3o2)nc2ccccn12,–,"inconclusive: 3.98 µM [rising, partial curve]"
Nc1nc2n(n1)C(c1c(F)cccc1Cl)CC(c1ccc(F)cc1)N2 (centres undefined),inactive,–
c1ccc(-c2cc(N3CCOCC3)nc(-c3ccccc3)n2)cc1,inactive,–
COc1cc(NC(=O)c2cnn3c(C)cc(C)nc23)c(OC)cc1Cl,–,"inconclusive: 5.01 µM [rising, partial curve]"
CCC[C@H]1C[C@H](C(=O)N[C@H]([C@@H]2O[C@H](SC)[C@@H](O)[C@H](O)[C@@H]2O)[C@H](C)O)N(C)C1,inactive,–
COn1c(C)c(C(C)=O)c2c3nonc3ccc21,–,"inconclusive: 12.6 µM [rising, single point]"
Cc1ccc(C)c(SCC(=O)OCC(=O)c2ccco2)c1,inactive,–
COc1ccc(OC)c2[nH]c(=O)c(CCNC(=O)CC(C)C)cc12,inconclusive: 25.1%,–
COc1ccc(CCN(Cc2nc3ccccc3c(=O)[nH]2)C(=O)c2ccco2)cc1OC,–,"inconclusive: 10 µM [rising, partial curve]"
Cc1nc(SCC#N)c2c(C)c(C)sc2n1,–,active: 2 µM
CCOC(=O)c1ccccc1NC1OC(=O)c2ccccc21 (centres undefined),inactive,–
Cc1nc2nc(-c3cccs3)cn2nc1C,–,"inconclusive: 10 µM [falling, partial curve]"
CCC1(C)Cc2ccccc2/C(=C/C(=O)N2CCCCC2)N1 (centres undefined),inactive,–
CCOC(=O)CCn1nc(-c2ccc(Cl)cc2)cc1N,inconclusive: 1.04%,–
COc1cccc(Nc2nc(N)nc(C(F)(F)F)n2)c1,–,"inconclusive: 12.6 µM [rising, partial curve]"
O=C(O)CCC(=O)NCc1ccc2[nH]c3c(c2c1)CCCC3,inactive,–
Cc1nc(SCCO)c2oc3ccccc3c2n1,–,active: 12.6 µM
COc1ccc(-c2c(C#N)c(SCc3c(C)noc3C)nc3c2C(=O)CC(C)(C)C3)cc1,–,"inconclusive: 0.0631 µM [falling, partial curve]"
N#Cc1c(NC(=O)CSc2n[nH]c(Cc3ccccc3)n2)oc(-c2ccccc2)c1-c1ccccc1,–,"inconclusive: 25.1 µM [rising, single point]"
CC(C(=O)Nc1nccs1)N1C(=O)C2CC=CCC2C1=O (centres undefined),–,"inconclusive: 5.01 µM [falling, single point]"

SMILES,"activity change, negative = inhibition",Potency
CC(=O)c1ccc(NC(=O)Nc2ncn(Cc3cccc(C)c3)n2)cc1,inconclusive: 20.6%,–
COC(=O)C(C)Sc1nnc2n(-c3cccc(C)c3)c(=O)c3c4c(sc3n12)CCCC4 (centres undefined),inactive,–
Cn1c(=O)[nH]c(=O)c2c1nc(Br)n2CCOc1ccccc1,–,active: 3.16 µM
CN1CC=C2C(C#N)=C(N)C(C#N)(C#N)C(CCc3ccccc3)C2C1 (centres undefined),inconclusive: 7.85%,–
Cc1cc(C)n2nc(C(=O)NCc3ccccc3)cc2n1,–,"inconclusive: 3.16 µM [rising, single point]"
O=c1c(CCc2ccccc2)nc2cnc(N3CCOCC3)nc2n1C[C@H]1CCCO1,–,"inconclusive: 5.01 µM [rising, partial curve]"
COc1ccc(C[C@@H]2C(=O)N[C@H](C)C(=O)N(C)[C@@H]3Cc4ccc(cc4)Oc4cc(ccc4O)C[C@H](C(=O)N[C@@H](C)C(=O)N[C@H](C)C(=O)N2C)N(C)C3=O)cc1,–,"inconclusive: 3.98 µM [falling, partial curve]"
CSc1nnc(Cc2cc(=O)[nH]c(=O)[nH]2)n1-c1cccc(C)c1,inconclusive: -0.901%,–
CC(C)(C)c1ccc(-c2nnc(SCCC#N)n2C2CCCC2)cc1,inconclusive: -2.97%,–
c1ccc(COc2ccc(Oc3nc(N4CCCCC4)nc(N4CCOCC4)n3)nn2)cc1,–,"inconclusive: 25.1 µM [rising, single point]"
O=C1c2oc3ccc(Cl)cc3c(=O)c2C(c2cccc(Br)c2)N1CCO (centres undefined),inactive,–
Cc1ccc(C2C3=C(CC(C)(C)CC3=O)NC3=C2C(=O)CC(C)(C)C3)o1,inconclusive: 6.66%,–
NC(=O)SCC(=O)Nc1ccc(Cl)c(Cl)c1,inconclusive: -0.611% [cytotoxic],–
CC(C)NC(=O)N1CC[C@@]2(CCCN(C(=O)c3cnccn3)C2)C1,inactive,–
O=C(Nc1cccc(NC(=O)c2ccco2)c1)c1ccc2c(c1)OCO2,inactive,–
COc1ccc(CCCO[C@@H](Cn2ccnc2)c2ccc(OC)cc2)cc1,–,"inconclusive: 20 µM [rising, partial curve, poor fit]"
NC(N)=NCCCCN=C(N)N,inactive,–
CCCc1cc(C(=O)Cc2ccc(C(=O)OCC)o2)c(O)cc1O,inconclusive: -14%,–
CCn1c(Cc2ccc(OC)cc2)nnc1SCC(=O)Nc1cccc(C(=O)OC)c1,–,"inconclusive: 12.6 µM [rising, partial curve]"
COc1ccc(S(=O)(=O)N2CCN(CC(=O)Nc3ccc(C)c(F)c3)CC2)cc1,inconclusive: -24.2%,–
O=C(CN(CC1CCCO1)C(=O)CCC(=O)Nc1nccs1)NCc1ccc2c(c1)OCO2 (centres undefined),–,"inconclusive: 3.98 µM [falling, single point]"
O=C(Nc1cccnc1)c1cc2nc(C3CC3)cc(C(F)(F)F)n2n1,–,"inconclusive: 10 µM [rising, single point]"
CCOC(=O)c1c(C)c(C(=O)NCc2ccc3c(c2)OCO3)c(C)n1C,inconclusive: 22.2%,–
COc1cccc2c1NC(C(=O)O)C1CC=CC21 (centres undefined),inactive,–
O=C(c1ccc(F)cc1)C1CCN(CCn2c(=S)[nH]c3ccccc3c2=O)CC1,–,"inconclusive: 20 µM [falling, partial curve, poor fit]"

# From PubChem BioAssay AID662 (National Center for Advancing Translational Sciences (NCATS), 2007)
